The values below come from the supplement of paper PMC10126150.

Values marked as one replicate rest on one cluster of the flow cell; about a third of the high ones do not repeat.
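Also: ATP exposure 15 min at 22 °C before imaging.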

The series deals with ATP. The series can be described thus: switch fluorescence ratio, 500 uM ATP over buffer (Cy3 cluster intensity, sum of 5 cycles each) (fold (ratio)); higher = stronger signal-on switching upon ATP binding; sequences stand for … in TCGTCGGCAGCGTCAGATGTGTATAAGAGACAGTTTTTTTTTTTTTTTTTTTTTTTTT…TC. Conditions: aptamer strand: ATP DNA aptamer (quencher-CACCTGGGGGAGTATTGCGGAGGAAGG + anchor), 100 nM annealed; ATP concentration: 500 uM; one replicate. Summed up: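 Clusters with intensities outside 100-1000 RFU were excluded. The remaining Cy3-labelled switching-strand clusters on a modified Illumina MiSeq flow-cell had been annealed to 100 nM quencher-labelled ATP aptamer and imaged in selection buffer, then after 15 min with 500 uM ATP at 22 °C, for five cycles separated by NaOH stripping and re-annealing. The fluorescence ratio, averaged per switch-domain sequence, is each cluster's summed target-cycle Cy3 intensity over its summed buffer-cycle Cy3 intensity.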
Take CACGGTTATG: the switch fluorescence ratio was 1.08.
Under TAATCTCCA stands 1.1.
The value for AAATACCCCC was 1.88.
Under TGACCGGACT stands 1.17.
As for CGATATATTT, the switch fluorescence ratio was 0.997.
The value for CAGGTAAGTA was 0.992.
Under CGTACTACCT stands 1.21; under TGGATGGTTA, 1.01; under CAGTAAAGCG, 0.966.
Under GAAATAGGAG stands 1.03; under ACTGAGTTA, 1.03.
Consider AACTACATCT, for which the switch fluorescence ratio turned out to be 1.07.
Take ACGACGCCGG: the switch fluorescence ratio was 1.6.
Under TGAGGCAGTA stands 1.12; under GAAGTATCAT, 1.02.
As to TATCGAAGTA, the switch fluorescence ratio worked out at 1.
The value for TTACCTGTAC was 1.07; that for TTCTCGCTGA was 1.39; that for GTGTGGCCGT was 1.06.
Under CCAGCTAATA stands 1.85.
Under AAAGCGAACT stands 1.04.
For TATAGCTTCC, the switch fluorescence ratio turned out to be 2.84.
Under GACTTGAAAA stands 1.03; under CGCGTGGTGA, 0.997; under CTTTAACTTA, 1.
Under CCGGTTTCTG stands 1.04.
The value for TGCTAGAGAT was 0.984; that for CATTGAACCC was 1.53; that for GTGAGGGGCA was 1.02.
With CGGGGGGTGA, the switch fluorescence ratio was found to be 1.07.
Under ACAAGGGTAG stands 1.
Under TCGTAGTTCT stands 0.946.
Under TTGAAACCTT stands 1.11.
On to AACGGACTGC, for which the switch fluorescence ratio came out at 1.27.
The value for GCTGCCGCCG was 1.06.
In the case of CATTGTTGAA, the switch fluorescence ratio is 0.953.
The value for TTGAAGGTTT was 1.34; that for AGAAGCGTGT was 1.
The value for TGGGGGATA was 1.03; that for CAAATGTGTA was 0.995.
Under TATAGAGTTA stands 1; under CCCAATCTGA, 1.11.
Consider CGAAACTGCG, for which the switch fluorescence ratio came to 0.988.
The value for ATCGGTAGTG was 0.969; that for GGATCTATAC was 1.2.
Under GCCTCTACAC stands 1.08.
With TTTCTTCCCA, the switch fluorescence ratio was determined as 1.07.
With ATTTACTTTG, the switch fluorescence ratio was 1.03.
The value for GGATAGAAG was 0.975; that for TAGGTTGACA was 0.978.
The value for GACACCGAAC was 1.7; that for AGACAATGTT was 1; that for CTCAAAATCG was 1.09.
The value for ATGGCTAGGG was 1.03; that for GGATTCCTCG was 1.2.
Take CGGCCAACAC: the switch fluorescence ratio amounted to 3.05.
As for TAGATAGGAC, the switch fluorescence ratio was 1.01.
As to GCATTCAGCT, the switch fluorescence ratio came out at 0.989.
The value for TTGGTCGGGC was 0.946; that for TATAGAATGG was 0.972; that for TACGGCGGTC was 0.996.
For CAAAGGGTGG, the switch fluorescence ratio came out at 0.994.
Under CTTAATGATA stands 0.973; under TTCCGGACCT, 1.15.
Under TAACCCGAGG stands 1.03.
Under CAGATTAAC stands 0.991.
Regarding CCAATGAGCG, the switch fluorescence ratio stood at 1.03.
Regarding ATGTACGTGC, the switch fluorescence ratio was 1.01.
On to ACTTTGTACT, for which the switch fluorescence ratio is 1.01.
Consider ACTTACGCGC, for which the switch fluorescence ratio was found to be 1.04.
The value for GAACCATTTA was 1.03.
Under GTACCTCTGC stands 1.47.
The value for ATTTGACCTT was 1.22; that for TCCTAGCATT was 2.37; that for CCGCATCCGT was 1.73.
With ATGTTTGAG, the switch fluorescence ratio was 0.98.
The value for AATAATGCTA was 0.989.
Under ACTGTCCGAA stands 0.991.
The value for CCTTGCCGCT was 1.05; that for AATAGATGAA was 0.983; that for TAAGATAGGT was 1.12.
As to GTCATTGGAA, the switch fluorescence ratio came to 1.
ATGAGAGAGG: the switch fluorescence ratio is 0.971.
Under CAGTAGCCTT stands 1.04; under GGGCCCGTTA, 1.03; under GCCTTACACC, 1.39.
Under GACTTTCGGG stands 1.02.
The value for TCCAGTACGT was 1.01; that for AAGCTCTATG was 0.964; that for TAGCGATCGT was 1.02.
On to TGAGGCCAGT, for which the switch fluorescence ratio was determined as 0.986.
Turning to GGAAGTGGCC, the switch fluorescence ratio came out at 0.968.
As to GTGGATGTGG, the switch fluorescence ratio was found to be 0.986.
Under ACTAGGGGTA stands 1.01.
In the case of GTTTTTTATG, the switch fluorescence ratio amounted to 1.02.
The value for TTTACAGCTG was 1.08; that for CGTTTGAGGT was 0.985.
On to GATCCAGTCG, for which the switch fluorescence ratio came out at 1.
Under GCAACTATCG stands 1.03; under GGGCCGTAT, 1.05.
Regarding GCTAATGGTG, the switch fluorescence ratio was found to be 1.04.
For TACATCGACT, the switch fluorescence ratio turned out to be 0.975.
Under TTGGGGTGC stands 0.997; under TTTACGCCGA, 0.965; under CTTTTCCTTC, 1.78.
The value for TTCAGTCGCA was 1.01; that for ATTAGCTGTA was 1.03.
Under TGTGGTGCCG stands 1.01; under TTCGAATAGG, 1.
As for TCAGTCCGTT, the switch fluorescence ratio was determined as 1.01.
Under GTTGTACCCT stands 1.06; under CATTCTACT, 1.03.
Under CAAATTGAAA stands 1.02.
In the case of TCGGCGTCG, the switch fluorescence ratio amounted to 1.03.
Under AGTGGGCTAG stands 1.01.
Under CCTTTTTAGG stands 1; under CTTGTTCAC, 0.983.
Under ATCCGATCT stands 0.994; under ACCTCTCAGG, 1.05.
AAGAAGGAAA: the switch fluorescence ratio turned out to be 1.01.
